Assay results from publication PMC1939999.
These are yes or no findings as the source states them, for the method shown. In cells and extracts the contact can be indirect. Some entries that bind do so weakly or less than the wild type.

Sequences of proteins named here, by UniProt entry; tags and fusion partners are left off.
UniProt Q16637: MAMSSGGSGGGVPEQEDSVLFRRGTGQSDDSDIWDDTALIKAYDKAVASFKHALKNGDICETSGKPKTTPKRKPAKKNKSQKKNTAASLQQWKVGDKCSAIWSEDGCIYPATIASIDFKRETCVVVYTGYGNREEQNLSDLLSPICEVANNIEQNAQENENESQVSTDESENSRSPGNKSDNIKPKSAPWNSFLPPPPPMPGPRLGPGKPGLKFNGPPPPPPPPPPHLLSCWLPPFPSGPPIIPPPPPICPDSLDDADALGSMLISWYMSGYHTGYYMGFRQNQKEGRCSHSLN
UniProt Q9H840: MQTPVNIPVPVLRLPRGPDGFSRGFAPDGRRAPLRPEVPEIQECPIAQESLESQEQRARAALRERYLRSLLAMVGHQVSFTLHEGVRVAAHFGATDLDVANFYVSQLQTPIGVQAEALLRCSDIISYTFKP
UniProt Q8TEQ6: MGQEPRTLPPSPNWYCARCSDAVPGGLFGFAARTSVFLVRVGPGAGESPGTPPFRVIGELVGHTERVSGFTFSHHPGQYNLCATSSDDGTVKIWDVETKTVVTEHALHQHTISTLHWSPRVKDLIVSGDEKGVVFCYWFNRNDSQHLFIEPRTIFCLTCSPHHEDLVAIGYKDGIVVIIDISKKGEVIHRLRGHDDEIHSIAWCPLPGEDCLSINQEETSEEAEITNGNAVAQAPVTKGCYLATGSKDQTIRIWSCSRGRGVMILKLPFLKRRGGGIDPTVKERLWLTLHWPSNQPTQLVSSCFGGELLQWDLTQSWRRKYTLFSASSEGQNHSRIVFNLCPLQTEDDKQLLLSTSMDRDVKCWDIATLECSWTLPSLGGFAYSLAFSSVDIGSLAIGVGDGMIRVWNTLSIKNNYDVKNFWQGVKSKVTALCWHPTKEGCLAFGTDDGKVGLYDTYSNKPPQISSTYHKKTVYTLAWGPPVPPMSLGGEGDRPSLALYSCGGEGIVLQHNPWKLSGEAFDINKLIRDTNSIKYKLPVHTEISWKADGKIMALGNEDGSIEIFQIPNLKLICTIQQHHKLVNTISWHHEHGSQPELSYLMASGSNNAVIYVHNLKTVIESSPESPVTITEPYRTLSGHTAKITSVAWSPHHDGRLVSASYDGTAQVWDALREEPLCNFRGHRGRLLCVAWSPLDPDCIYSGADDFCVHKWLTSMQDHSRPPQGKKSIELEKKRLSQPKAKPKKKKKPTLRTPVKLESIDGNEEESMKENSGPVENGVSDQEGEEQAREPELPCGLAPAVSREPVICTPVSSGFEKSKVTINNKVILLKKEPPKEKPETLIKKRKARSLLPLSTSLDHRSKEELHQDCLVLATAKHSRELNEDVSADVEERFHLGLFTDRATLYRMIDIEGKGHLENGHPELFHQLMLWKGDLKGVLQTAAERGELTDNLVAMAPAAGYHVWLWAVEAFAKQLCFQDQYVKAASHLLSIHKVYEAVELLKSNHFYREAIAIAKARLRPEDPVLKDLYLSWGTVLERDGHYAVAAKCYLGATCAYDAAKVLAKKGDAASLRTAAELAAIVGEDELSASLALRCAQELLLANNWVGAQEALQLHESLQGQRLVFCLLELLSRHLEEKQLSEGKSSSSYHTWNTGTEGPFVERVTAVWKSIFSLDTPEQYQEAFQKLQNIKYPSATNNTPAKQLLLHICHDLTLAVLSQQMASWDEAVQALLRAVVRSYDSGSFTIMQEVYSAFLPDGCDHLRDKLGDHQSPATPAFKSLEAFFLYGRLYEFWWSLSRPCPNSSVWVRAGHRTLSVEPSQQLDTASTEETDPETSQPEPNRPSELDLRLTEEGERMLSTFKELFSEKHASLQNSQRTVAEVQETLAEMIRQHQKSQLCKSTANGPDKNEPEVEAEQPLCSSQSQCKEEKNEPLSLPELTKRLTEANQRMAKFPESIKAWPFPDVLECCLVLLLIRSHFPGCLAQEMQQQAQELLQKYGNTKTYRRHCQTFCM
UniProt Q9UHI6: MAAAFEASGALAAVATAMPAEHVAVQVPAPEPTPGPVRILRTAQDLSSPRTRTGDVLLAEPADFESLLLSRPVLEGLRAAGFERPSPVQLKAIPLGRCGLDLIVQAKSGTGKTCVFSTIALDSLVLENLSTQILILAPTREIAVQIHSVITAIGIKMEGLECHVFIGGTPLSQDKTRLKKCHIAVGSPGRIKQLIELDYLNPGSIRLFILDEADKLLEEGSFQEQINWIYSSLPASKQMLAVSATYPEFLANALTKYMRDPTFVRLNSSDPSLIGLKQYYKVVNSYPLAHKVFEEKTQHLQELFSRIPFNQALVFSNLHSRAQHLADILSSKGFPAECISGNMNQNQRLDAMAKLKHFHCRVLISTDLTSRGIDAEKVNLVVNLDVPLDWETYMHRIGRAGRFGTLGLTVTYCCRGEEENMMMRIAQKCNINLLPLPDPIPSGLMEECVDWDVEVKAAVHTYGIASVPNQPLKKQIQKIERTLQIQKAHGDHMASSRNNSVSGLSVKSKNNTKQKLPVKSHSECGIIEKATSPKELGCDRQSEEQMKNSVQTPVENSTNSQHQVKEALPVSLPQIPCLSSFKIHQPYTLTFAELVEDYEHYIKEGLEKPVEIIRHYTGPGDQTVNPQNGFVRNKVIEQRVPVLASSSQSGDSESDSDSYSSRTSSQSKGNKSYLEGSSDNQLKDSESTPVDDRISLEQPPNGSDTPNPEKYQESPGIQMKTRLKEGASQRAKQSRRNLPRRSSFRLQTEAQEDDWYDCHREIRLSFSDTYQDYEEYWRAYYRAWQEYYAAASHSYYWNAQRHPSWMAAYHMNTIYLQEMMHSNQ
UniProt O14893: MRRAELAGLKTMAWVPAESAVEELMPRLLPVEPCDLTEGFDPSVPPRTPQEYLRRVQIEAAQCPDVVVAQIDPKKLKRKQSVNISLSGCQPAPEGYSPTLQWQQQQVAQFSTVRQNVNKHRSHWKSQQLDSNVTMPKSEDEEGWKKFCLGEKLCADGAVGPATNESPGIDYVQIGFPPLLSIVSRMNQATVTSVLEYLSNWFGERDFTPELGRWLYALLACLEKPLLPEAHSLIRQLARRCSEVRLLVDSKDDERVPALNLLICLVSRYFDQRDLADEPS
UniProt Q8WXD5: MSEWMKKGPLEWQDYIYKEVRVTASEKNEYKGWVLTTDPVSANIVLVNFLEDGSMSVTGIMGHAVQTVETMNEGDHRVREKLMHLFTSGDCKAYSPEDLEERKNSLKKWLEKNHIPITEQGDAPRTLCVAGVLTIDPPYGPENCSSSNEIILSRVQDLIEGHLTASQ
UniProt P35080: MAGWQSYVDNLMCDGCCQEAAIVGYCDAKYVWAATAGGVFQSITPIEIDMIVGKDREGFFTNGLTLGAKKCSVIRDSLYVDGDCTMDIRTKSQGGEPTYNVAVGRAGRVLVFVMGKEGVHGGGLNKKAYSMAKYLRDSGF

What was measured:
[1] = target: survival of motor neurons (SMN) protein (human (endogenous in HeLa)) (UniProt Q16637); assay: co-sedimentation; HeLa cytoplasmic extract (low salt) on 15-30% sucrose density gradient in 150 mM NaCl, 50 mM Tris HCl pH 7.4, 5 mM MgCl2, 21 hours at 4°C; fractions western blotted
[2] = target: survival of motor neurons (SMN) protein (human (endogenous in HeLa)) (UniProt Q16637); assay: co-IP; MANSMA1 anti-SMN mAb on Dynabeads with HeLa cytoplasmic extract to which KCl was added to the same concentration as the nuclear extraction buffer (440 mM total)
[3] = target: survival of motor neurons (SMN) protein (human (endogenous in HeLa)) (UniProt Q16637); assay: co-IP; MANSMA1 anti-SMN mAb on anti-mouse Ig Dynabeads, 16 h at 4°C with HeLa nuclear extract (420 mM KCl, 20 mM HEPES-KOH pH 7.9), washed 5x with PBS, western blot
[4] = target: survival of motor neurons (SMN) protein (human (endogenous in HeLa)) (UniProt Q16637); assay: co-sedimentation; HeLa nuclear extract (420 mM KCl) on 15-30% sucrose density gradient in 150 mM NaCl, 50 mM Tris HCl pH 7.4, 5 mM MgCl2, 21 hours at 4°C; fractions western blotted
[5] = target: survival of motor neurons (SMN) protein (human (endogenous in HeLa)) (UniProt Q16637); assay: co-IP; MANSMA1 anti-SMN mAb on anti-mouse Ig Dynabeads, 16 h at 4°C with HeLa cytoplasmic extract (10 mM KCl, 10 mM HEPES-KOH pH 7.9), washed 5x with PBS, western blot
[6] = target: gemin7 (human (endogenous in HeLa)) (UniProt Q9H840); assay: co-IP; anti-gemin antibodies (GEM6B, GEM7B, GEM5P, GEM4C, GEM4D, MANSIP1B, MANSIP1A, rabbit anti-gemin3) on Dynabeads with total RIPA extract of HeLa cells, 16 h at 4°C; western blot with anti-SMN mAb MANSMA12
[7] = target: gemin5 (human (endogenous in HeLa)) (UniProt Q8TEQ6); assay: as above
[8] = target: gemin3 (human (endogenous in HeLa)) (UniProt Q9UHI6); assay: as above
[9] = target: gemin2 (human (endogenous in HeLa)) (UniProt O14893); assay: as above
[10] = target: gemin6 (human (endogenous in HeLa)) (UniProt Q8WXD5); assay: as above

Substance: gemin2 (from UniProt O14893 1-280)
- binding [1]: binds

Substance: gemin3 (from UniProt Q9UHI6 1-824)
- binding [1]: binds

Substance: gemin5 (from UniProt Q8TEQ6 1-1508)
- binding [2]: binds
- binding [1]: binds
- binding [3]: no binding (condition: in nuclear extract)
- binding [4]: no binding (condition: in nuclear extract)
- binding [5]: binds

Substance: gemin6 (from UniProt Q8WXD5 1-167)
- binding [1]: binds

Substance: gemin7 (from UniProt Q9H840 1-131)
- binding [1]: binds

Substance: profilin II (from UniProt P35080 1-140)
- binding [1]: no binding

Substance: survival of motor neurons (SMN) protein (from UniProt Q16637 1-294)
- binding [6]: binds
- binding [7]: binds
- binding [8]: binds
- binding [9]: binds
- binding [10]: binds
